# Residue numbers refer to the chain shown, from its start. This is one part of the list.
# T1: RBFOX1 RRM RbFoxmut (Fox-RRM*) (Homo sapiens, UniProt Q9NWB1 109-208, R118D;E147R;N151S;E152T)
# T1 sequence: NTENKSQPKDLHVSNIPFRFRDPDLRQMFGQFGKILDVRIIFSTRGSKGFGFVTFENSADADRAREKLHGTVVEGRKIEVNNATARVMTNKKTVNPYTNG
# B1: ACGUUAC (DNA:RNA)
# RNA: GGGAGACCGGAAUUCAGAUUGUCCACGUUACUUAAAUCCCGUCGUAGCCACCA
# DNA 1: CAATCTGAATTCCGGTCTCCC
# DNA 2: TGGTGGCTACGACGGGATT
# B2: CGGCAAC (DNA:RNA)
# RNA: B1 RNA with A25C, C26G, U28C, U29A
# DNA 1: CAATCTGAATTCCGGTCTCCC
# DNA 2: TGGTGGCTACGACGGGATT
# B3: AUUUCGU (DNA:RNA)
# RNA: B1 RNA with C26U, G27U, U29C, A30G, C31U
# DNA 1: CAATCTGAATTCCGGTCTCCC
# DNA 2: TGGTGGCTACGACGGGATT
# B4: AAGUAGC (DNA:RNA)
# RNA: B1 RNA with C26A, U29A, A30G
# DNA 1: CAATCTGAATTCCGGTCTCCC
# DNA 2: TGGTGGCTACGACGGGATT
# B5: ACAGAAU (DNA:RNA)
# RNA: B1 RNA with G27A, U28G, U29A, C31U
# DNA 1: CAATCTGAATTCCGGTCTCCC
# DNA 2: TGGTGGCTACGACGGGATT
# B6: ACCUCGC (DNA:RNA)
# RNA: B1 RNA with G27C, U29C, A30G
# DNA 1: CAATCTGAATTCCGGTCTCCC
# DNA 2: TGGTGGCTACGACGGGATT
# B7: CGUAUGU (DNA:RNA)
# RNA: B1 RNA with A25C, C26G, G27U, U28A, A30G, C31U
# DNA 1: CAATCTGAATTCCGGTCTCCC
# DNA 2: TGGTGGCTACGACGGGATT
# B8: ACUGUGC (DNA:RNA)
# RNA: B1 RNA with G27U, U28G, A30G
# DNA 1: CAATCTGAATTCCGGTCTCCC
# DNA 2: TGGTGGCTACGACGGGATT
# B9: GACCAGA (DNA:RNA)
# RNA: GGGAGACCGGAAUUCAGAUUGUCCGACCAGAUUAAAUCCCGUCGUAGCCACCA
# DNA 1: CAATCTGAATTCCGGTCTCCC
# DNA 2: TGGTGGCTACGACGGGATT
# B10: CCCUCAC (DNA:RNA)
# RNA: B1 RNA with A25C, G27C, U29C
# DNA 1: CAATCTGAATTCCGGTCTCCC
# DNA 2: TGGTGGCTACGACGGGATT
# B11: ACACUGG (DNA:RNA)
# RNA: B1 RNA with G27A, U28C, A30G, C31G
# DNA 1: CAATCTGAATTCCGGTCTCCC
# DNA 2: TGGTGGCTACGACGGGATT
# B12: AUAUGCA (DNA:RNA)
# RNA: B1 RNA with C26U, G27A, U29G, A30C, C31A
# DNA 1: CAATCTGAATTCCGGTCTCCC
# DNA 2: TGGTGGCTACGACGGGATT
# B13: GGAUUUC (DNA:RNA)
# RNA: B1 RNA with A25G, C26G, G27A, A30U
# DNA 1: CAATCTGAATTCCGGTCTCCC
# DNA 2: TGGTGGCTACGACGGGATT
# B14: UUGGACG (DNA:RNA)
# RNA: B1 RNA with A25U, C26U, U28G, U29A, A30C, C31G
# DNA 1: CAATCTGAATTCCGGTCTCCC
# DNA 2: TGGTGGCTACGACGGGATT
# B15: GUAACCA (DNA:RNA)
# RNA: B9 RNA with A26U, C27A, C28A, A29C, G30C
# DNA 1: CAATCTGAATTCCGGTCTCCC
# DNA 2: TGGTGGCTACGACGGGATT
# B16: AGAGCAA (DNA:RNA)
# RNA: B1 RNA with C26G, G27A, U28G, U29C, C31A
# DNA 1: CAATCTGAATTCCGGTCTCCC
# DNA 2: TGGTGGCTACGACGGGATT
# B17: UUGGCUA (DNA:RNA)
# RNA: B1 RNA with A25U, C26U, U28G, U29C, A30U, C31A
# DNA 1: CAATCTGAATTCCGGTCTCCC
# DNA 2: TGGTGGCTACGACGGGATT
# B18: AAACCGG (DNA:RNA)
# RNA: B9 RNA with G25A, C27A, A29C, A31G
# DNA 1: CAATCTGAATTCCGGTCTCCC
# DNA 2: TGGTGGCTACGACGGGATT
# B19: GUGAUAC (DNA:RNA)
# RNA: B1 RNA with A25G, C26U, U28A
# DNA 1: CAATCTGAATTCCGGTCTCCC
# DNA 2: TGGTGGCTACGACGGGATT
# B20: UCCACAC (DNA:RNA)
# RNA: B1 RNA with A25U, G27C, U28A, U29C
# DNA 1: CAATCTGAATTCCGGTCTCCC
# DNA 2: TGGTGGCTACGACGGGATT
# B21: AGUGUUC (DNA:RNA)
# RNA: B1 RNA with C26G, G27U, U28G, A30U
# DNA 1: CAATCTGAATTCCGGTCTCCC
# DNA 2: TGGTGGCTACGACGGGATT
# B22: UUAAGUU (DNA:RNA)
# RNA: GGGAGACCGGAAUUCAGAUUGUCCUUAAGUUUUAAAUCCCGUCGUAGCCACCA
# DNA 1: CAATCTGAATTCCGGTCTCCC
# DNA 2: TGGTGGCTACGACGGGATT
# B23: CCGGGGU (DNA:RNA)
# RNA: B1 RNA with A25C, U28G, U29G, A30G, C31U
# DNA 1: CAATCTGAATTCCGGTCTCCC
# DNA 2: TGGTGGCTACGACGGGATT
# B24: GUCACCU (DNA:RNA)
# RNA: B22 RNA with U25G, A27C, G29C, U30C
# DNA 1: CAATCTGAATTCCGGTCTCCC
# DNA 2: TGGTGGCTACGACGGGATT
# B25: UAGUGUC (DNA:RNA)
# RNA: B1 RNA with A25U, C26A, U29G, A30U
# DNA 1: CAATCTGAATTCCGGTCTCCC
# DNA 2: TGGTGGCTACGACGGGATT
# B26: GUGUCCU (DNA:RNA)
# RNA: B1 RNA with A25G, C26U, U29C, A30C, C31U
# DNA 1: CAATCTGAATTCCGGTCTCCC
# DNA 2: TGGTGGCTACGACGGGATT
# B27: CCAACAU (DNA:RNA)
# RNA: B22 RNA with U25C, U26C, G29C, U30A
# DNA 1: CAATCTGAATTCCGGTCTCCC
# DNA 2: TGGTGGCTACGACGGGATT
# B28: AGUCCGG (DNA:RNA)
# RNA: B9 RNA with G25A, A26G, C27U, A29C, A31G
# DNA 1: CAATCTGAATTCCGGTCTCCC
# DNA 2: TGGTGGCTACGACGGGATT
# B29: AUCGUCU (DNA:RNA)
# RNA: B1 RNA with C26U, G27C, U28G, A30C, C31U
# DNA 1: CAATCTGAATTCCGGTCTCCC
# DNA 2: TGGTGGCTACGACGGGATT
# B30: GUCCAAC (DNA:RNA)
# RNA: B9 RNA with A26U, G30A, A31C
# DNA 1: CAATCTGAATTCCGGTCTCCC
# DNA 2: TGGTGGCTACGACGGGATT
# B31: GUGGACA (DNA:RNA)
# RNA: B9 RNA with A26U, C27G, C28G, G30C
# DNA 1: CAATCTGAATTCCGGTCTCCC
# DNA 2: TGGTGGCTACGACGGGATT
# Molecular target: T1, RBFOX1 RRM RbFoxmut (Fox-RRM*)
# Assay: EMSA; HiTS-Eq, 1 nM pool, 10 min; buffer printed only for the single-RNA assays: 10 mM Tris pH 7.5, 150 mM NaCl, 3.4 mM EDTA, 0.001% NP-40, 30 C
# Conditions: tags: His6 N-terminal (pET28a); label: 5' 32P
# In short: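 A pool of RNA with 7 randomized nucleotides, 5′-radiolabelled and with DNA-annealed flanks, was equilibrated at 1 nM for 10 min in 50 µL with purified RbFox RRM, wild type or mutant, across increasing protein concentrations. Free RNA was separated by 8% native PAGE, excised, reverse-transcribed, barcoded by PCR and sequenced. Relative association constants were obtained from read-count changes of each RNA species versus the control reaction and normalised to the cognate motif.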
row,Binder,binding signal
1,B1,0.0964 KA relative to UGCAUGU
2,B2,0.0506 KA relative to UGCAUGU
3,B3,0.126 KA relative to UGCAUGU
4,B4,0.0939 KA relative to UGCAUGU
5,B5,0.0937 KA relative to UGCAUGU
6,B6,0.0949 KA relative to UGCAUGU
7,B7,0.554 KA relative to UGCAUGU
8,B8,0.135 KA relative to UGCAUGU
9,B9,0.0823 KA relative to UGCAUGU
10,B10,0.103 KA relative to UGCAUGU
11,B11,0.123 KA relative to UGCAUGU
12,B12,0.208 KA relative to UGCAUGU
13,B13,0.0732 KA relative to UGCAUGU
14,B14,0.0635 KA relative to UGCAUGU
15,B15,0.111 KA relative to UGCAUGU
16,B16,0.0663 KA relative to UGCAUGU

row,Binder,binding signal
1,B17,0.168 KA relative to UGCAUGU
2,B18,0.08 KA relative to UGCAUGU
3,B19,0.101 KA relative to UGCAUGU
4,B20,0.0933 KA relative to UGCAUGU
5,B21,0.115 KA relative to UGCAUGU
6,B22,0.0893 KA relative to UGCAUGU
7,B23,0.123 KA relative to UGCAUGU
8,B24,0.0536 KA relative to UGCAUGU
9,B25,0.238 KA relative to UGCAUGU
10,B26,0.0761 KA relative to UGCAUGU
11,B27,0.141 KA relative to UGCAUGU
12,B28,0.104 KA relative to UGCAUGU
13,B29,0.089 KA relative to UGCAUGU
14,B30,0.0654 KA relative to UGCAUGU
15,B31,0.0497 KA relative to UGCAUGU

# Reference: publication PMC9911399, “Two distinct binding modes provide the RNA-binding protein RbFox with extraordinary sequence specificity”
